In PubChem BioAssay AID1508623 (National Center for Advancing Translational Sciences (NCATS), 2021):
The whole screen tested about 48,000 compounds, of which about 450 (0.94%) were called active. This list was built around the results that the source calls inconclusive (neither active nor inactive); the mix of calls is not that of the screen. The call rests on the fitted dose curve; in most records, active means well fitted inhibition curve with a large enough effect; inconclusive means small, poorly fitted or top-dose-only effect; inactive means no such curve, though single readings can be large or run the other way. Potencies of inconclusive entries are doubtful fits and often do not repeat.

Assay: Primary qHTS for Identification of Small Molecule Inhibitors of Huntingtin Promoter Activity; further: nearly all actives have a fitted effect of over 50% in size
Conditions: HEK293 HTT promoter firefly luciferase reporter (activity 0% = vehicle and -100% = no light), 24 h; activity change, negative = inhibition: at 57.5 µM (top of the series)
Summary of the method: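 Firefly luciferase readout (Dual-Glo, 10 min RT) after 24 h, 37 °C compound exposure (final up to 57.5 uM) of HEK293 reporter cells cultured 24 h beforehand; PTC124 at 50 uM final as control inhibitor; activity scaled vehicle 0%, zero RLU -100%.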
Potency means the concentration at half of the fitted maximal effect; tags describe the fitted curve by direction and shape.

Activity change, negative = inhibition, inactive:
CC(C)(O)[C@H]1CC[C@@](C)([C@H]2[C@@H](O)C[C@@]3(C)[C@@H]4C[C@H](O[C@@H]5O[C@H](CO)[C@@H](O)[C@H](O)[C@@H]5O)[C@H]5C(C)(C)[C@@H](O[C@@H]6OC[C@@H](O)[C@H](O)[C@@H]6O)CC[C@@]56C[C@@]46CC[C@]23C)O1 -0.857%, Cc1cc2ccccc2n1CCNC(=O)c1cccc(Br)c1 -19.9%, Nc1nnc2c(n1)[nH]c1ccccc12 2.1%, N#Cc1cc(NC(=O)C(=O)O)c(Cl)c(NC(=O)C(=O)O)c1 2.82%, COc1ccc(CN2CCN(Cc3cc(=O)oc4cc(C)ccc34)CC2)c(OC)c1OC -16.4%, CN(C)CC1CCN(C2CCN(C(=O)c3cccc(-c4cc(O)c5ncccc5c4)c3)CC2)CC1 -27.1%, Cc1ccccc1OCc1ccc(-c2nc(C#N)c(NCCCN(C)C)o2)o1 -8.41%, CC(C)CCOc1ccc(C(=O)Nc2sc3c(c2C#N)CCCCC3)cc1 -8.08%, COc1cccc(NC(=O)CC2C(=O)OCCN2Cc2ccccc2)c1 (stereo not drawn) -39.6%, CO[C@@H]1[C@H](N(C)C(=O)c2ccccc2)C[C@H]2O[C@]1(C)n1c3ccccc3c3c4c(c5c6ccccc6n2c5c31)C(=O)NC4 -29.1%, CC(=O)N/N=C/c1ccc([N+](=O)[O-])o1 8.88%, COc1ccc(NS(=O)(=O)c2ccc(NS(=O)(=O)c3ccc4c(c3)OCCO4)cc2)cc1 -29%

Potency, active:
O=C(Nc1ccc(SC(F)F)cc1)c1cc(-c2ccc3c(c2)OCCO3)on1 10 µM

Potency, inconclusive:
CCOc1cc(CNC(=O)c2sc3ncnc(N(C)C4CCCCC4)c3c2C)ccc1OC 35.5 µM [inhibitor, partial curve, poor fit], CC(=O)c1ccc(NC(=O)Cn2cc(S(=O)(=O)Cc3cccc(Cl)c3)c3ccccc32)cc1 35.5 µM [inhibitor, single point], CCC(=O)N1CCc2cc(Br)cc(S(=O)(=O)Nc3ccc(C)cc3C)c21 31.6 µM [inhibitor, single point], CCOc1ccc(NS(=O)(=O)c2ccc(-c3cc(C)no3)s2)cc1 20 µM [inhibitor, partial curve, poor fit], Cc1ccc(C)c(NC(=O)c2cnn(-c3cccc(F)c3)c2C2CCN(C(=O)OC(C)(C)C)CC2)c1 35.5 µM [inhibitor, single point], Cc1ccc(S(=O)(=O)Nc2ccc3c(c2)CCCN3C(=O)c2cccs2)cc1 25.1 µM [inhibitor, single point], COc1ccc2oc(=O)cc(CN3CCN(Cc4ccccc4)CC3)c2c1 39.8 µM [inhibitor, single point], CCOc1ccccc1N1CC(c2nc3ccccc3n2CCOc2ccccc2)CC1=O (stereo not drawn) 28.2 µM [inhibitor, single point], CCc1cccc(NC(=O)Cn2c(=O)ccc3cc(S(=O)(=O)N4CCC(C)CC4)ccc32)c1 39.8 µM [inhibitor, single point], CCc1ccc(CNc2ncnc3c2nc2n3CCCC2)cc1 25.1 µM [inhibitor, single point], COc1cccc(N2CCN(C(=O)c3ccc(Cn4c(=O)[nH]c5cc(OC)c(OC)cc5c4=O)cc3)CC2)c1 20 µM [inhibitor, partial curve], COC(=O)c1ccc(CSc2nc3c([nH]c4ccccc43)c(=O)n2-c2ccc(Cl)cc2)o1 20 µM [inhibitor, partial curve], CCCCNc1nc2c(c(=O)n(Cc3ccc(Cl)cc3)c(=O)n2C)n1C 35.5 µM [inhibitor, partial curve, poor fit], CCn1c(C(=O)NCc2cccc(Br)c2)cc2oc3ccccc3c21 25.1 µM [inhibitor, single point], COc1ccc(/C=C\c2onc(C)c2S(=O)(=O)N2CCC(C(=O)Nc3ccccc3OC)CC2)cc1 20 µM [inhibitor, partial curve, poor fit], COc1ccc(OC)c(NC(=O)CSc2c3c(nc4ccccc24)CCCC3)c1 39.8 µM [inhibitor, single point], CCCCOc1ccc(-c2nonc2NC(=O)c2ccco2)cc1 14.1 µM [inhibitor, partial curve, poor fit], CCCC(=O)N1c2ncnn2C2(CCCCC2)[C@@H]2CCCC[C@@H]21 35.5 µM [inhibitor, partial curve, poor fit], CCOc1ccc(CNC(=O)c2cc3oc4ccccc4c3n2C)cc1 17.8 µM [inhibitor, single point], Cc1cc(C)c2c(CC(=O)N(Cc3ccc(N(C)C)cc3)Cc3ccco3)coc2c1 28.2 µM [inhibitor, single point], COC(=O)c1ccc(Nc2ncnc3c2nc2n3CCCC2)cc1 39.8 µM [inhibitor, single point], CCOc1ccc(C(=O)NCCn2cc(SCC(=O)NCCc3ccc(OC)c(OC)c3)c3ccccc32)cc1 44.7 µM [inhibitor, single point], COc1ccccc1OCCn1cc(C(=O)c2cccs2)c2ccccc21 39.8 µM [inhibitor, single point], COc1ccc(Cl)cc1NC(=O)Cn1ccn(Cc2ccc(C)cc2)c(=O)c1=O 35.5 µM [inhibitor, partial curve, poor fit], CCC1CN(C(=O)N2CCC(C(=O)NCc3ccc(OC)cc3OC)CC2)c2cc(C)ccc2O1 (stereo not drawn) 25.1 µM [inhibitor, single point], COc1ccc(-c2nn(C)c3sc(C(=O)Nc4cccc(F)c4)cc23)cc1OC 35.5 µM [inhibitor, single point], CO[C@H]1/C=C\O[C@@]2(C)Oc3c(C)c(O)c4c(O)c(c(C=NN5CCN(C6CCCC6)CC5)c(O)c4c3C2=O)NC(=O)C(C)=CC=C[C@H](C)[C@H](O)[C@@H](C)[C@@H](O)[C@@H](C)[C@H](OC(C)=O)[C@H]1C 30.6 µM [inhibitor, single point], CCN(CC)S(=O)(=O)c1ccc2c(c1)N(CC(=O)N1CCN(c3cccc(C(F)(F)F)c3)CC1)C(=O)CO2 31.6 µM [inhibitor, single point], CCN(CC)c1cc(C)c2cc(NC(=O)/C=C/c3ccc(C)cc3)ccc2n1 15.8 µM [inhibitor, partial curve, poor fit], CCOc1ccc(CNC(=O)c2c(C)nn(-c3ccc(F)cc3)c2-n2cccc2)cc1 28.2 µM [inhibitor, partial curve, poor fit], Cc1ccc2oc(C(=O)N(Cc3ccccc3F)C3CCS(=O)(=O)C3)c(C)c2c1 (stereo not drawn) 39.8 µM [inhibitor, single point], COc1ccccc1CNC(=O)c1ccc2c(c1)sc1nc(-c3ccc(F)cc3)cn12 7.08 µM [inhibitor, full curve, poor fit], Cc1cccc(C)c1Nc1c(-c2ccc(Cl)s2)nc2ncccn12 31.6 µM [inhibitor, partial curve, poor fit], O=C(CSc1cn(CC(=O)N2CCCCCC2)c2ccccc12)Nc1ccccc1F 39.8 µM [inhibitor, single point], Cc1c(C(=O)NCc2ccc(N(C)C)cc2)oc2c1-c1nn(Cc3cccc(Cl)c3)cc1CC2 35.5 µM [inhibitor, single point], COc1ccc(-c2nc(-c3ccccc3)c(-c3ccccc3)[nH]2)cc1Br 39.8 µM [inhibitor, single point], Cc1cc(C)cc(NC(=O)Cn2c(=O)oc3cc(S(=O)(=O)N4CCCC4)ccc32)c1 35.5 µM [inhibitor, single point], CCOc1cc(CNCCSc2nnnn2-c2ccccc2)cc(Cl)c1OC 25.1 µM [inhibitor, partial curve, poor fit], COc1cc2nccc(Oc3ccc(NC(=O)Nc4cc(C)on4)c(Cl)c3)c2cc1OC 24.3 µM [inhibitor, partial curve], COc1ccccc1-c1noc(CSc2nc3ccc(C)cc3[nH]2)n1 22.4 µM [inhibitor, single point], O=C(CSc1cn(CC(=O)N2CCCCC2)c2ccccc12)Nc1ccccc1F 22.4 µM [inhibitor, single point], COc1cc(NC(=O)CCS(=O)(=O)c2nc(-c3cccs3)cc(C(F)(F)F)n2)cc(OC)c1OC 25.1 µM [inhibitor, single point], CCOc1ccccc1NC(=O)CSc1nccn1-c1ccc(Cl)cc1 39.8 µM [inhibitor, single point], COc1ccc(N2CCN(C(=O)CCn3cnc4onc(-c5ccc(F)cc5)c4c3=O)CC2)cc1 31.6 µM [inhibitor, single point], O=C(Nc1nonc1-c1ccc(Br)cc1)c1ccco1 10 µM [inhibitor, partial curve, poor fit]
